Test results from the supplement of paper PMC4166925.
± gives the standard deviation of the averaged measurements. In all, about 33,000 sequences were measured (“E-score (dimensionless, -0.5 to 0.5)”: median about -0.046, highest 2% from about 0.36 on). Some of the results follow.

System: T1, SpTbr T-box DNA-binding domain (GST fusion)
T1 sequence: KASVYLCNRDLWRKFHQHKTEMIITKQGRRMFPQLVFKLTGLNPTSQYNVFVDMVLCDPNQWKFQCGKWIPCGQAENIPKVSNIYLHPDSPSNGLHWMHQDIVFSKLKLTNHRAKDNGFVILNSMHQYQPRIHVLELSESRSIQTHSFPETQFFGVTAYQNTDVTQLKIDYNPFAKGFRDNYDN
Experiment: PBM E-score of 8-mer (E-score (dimensionless, -0.5 to 0.5)); Tbr is Tbrain of the sea star Patiria miniata (Pm) or the sea urchin Strongylocentrotus purpuratus (Sp); higher = stronger binding preference; most listed sequences are background and not binding sites
Settings: the construct has about 5 more residues each side
Method in brief: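 Universal Agilent oligonucleotide arrays, made double-stranded by primer extension, were incubated with 200 nM GST-fused Tbr T-box DNA-binding domain in PBS (pH 7.5). The protein was expressed in BL21 E. coli at 20 °C and purified by glutathione affinity chromatography. After scanning and quantification, the Universal PBM Analysis Suite assigned an enrichment E-score to each ungapped 8-mer, averaged over duplicate arrays.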

Sequence | PBM E-score of 8-mer
CTATAGTA | -0.211 ± 0.015
CAACTCGA | 0.144 ± 0.0075
ACGACTGA | -0.0336 ± 0.017
ATTTCAAA | -0.185 ± 0.056
CACGCGCA | 0.196 ± 0.077
AATAGCTG | 0.00317 ± 0.056
GGTGGGAA | 0.359 ± 0.011
CCTCCGCC | 0.077 ± 0.081
ATCCTTGA | -0.224 ± 0.0075
CGAGATGC | -0.0323 ± 0.032
GGGACCCA | -0.0579 ± 0.032
ACCCTCAA | 0.0515 ± 0.079
AATTTCCG | -0.265 ± 0.02
ATATCAGG | -0.117 ± 0.026
AGACGTGA | 0.145 ± 0.038
CGTCATGC | -0.0622 ± 0.021
ATCAATGG | -0.0599 ± 0.011
CCGATAGG | 0.00486 ± 0.048
AACTGAGC | -0.217 ± 0.015
AGACATGG | -0.384 ± 0.04
GTTTGTGA | 0.0633 ± 0.034
AGTTGATC | 0.0379 ± 0.12
ACTGCCAA | 0.0734 ± 0.024
AGGAGAAT | -0.211 ± 0.021
AGAATATC | -0.106 ± 0.057

Sequence | PBM E-score of 8-mer
ACGAACGA | -0.0913 ± 0.06
AAGGTCTC | -0.163 ± 0.025
AACCCCTG | -0.108 ± 0.043
TTCGCAAA | 0.182 ± 0.0032
GCAACGAA | -0.107 ± 0.045
ATCTAAAC | -0.121 ± 0.043
ATGACGTC | -0.0941 ± 0.026
AATTGATG | -0.227 ± 0.065
AACAGGTT | 0.285 ± 0.023
AGTTCATG | 0.0961 ± 0.014
CAATCAGC | -0.00392 ± 0.024
CATGCGCC | -0.226 ± 0.0069
CCCAGCGC | 0.0103 ± 0.049
AATTGCAA | 0.112 ± 0.016
ATAACAGA | 0.0616 ± 0.029
ACCGACTG | -0.0985 ± 0.015
AACAAAAC | 0.0715 ± 0.0016
AGGGTTGA | 0.0113 ± 0.017
AAATCCTT | -0.0811 ± 0.024
CACCGGTC | -0.146 ± 0.1
CAGTAGGA | -0.074 ± 0.042
TACCGGCA | -0.169 ± 0.033
AGACCGGG | -0.224 ± 0.05
CTCGAATC | 0.0369 ± 0.033
CCCGGGCA | -0.00186 ± 0.025

Sequence | PBM E-score of 8-mer
AGCGCTAG | 0.214 ± 0.014
CTACCTCA | -0.07 ± 0.025
CATGTCCG | -0.193 ± 0.056
ACGCAAGG | 0.148 ± 0.019
CACACGCG | 0.241 ± 0.057
CCGGACGA | -0.223 ± 0.017
CCTTCAGA | -0.253 ± 0.038
GAGATTCC | -0.0288 ± 0.021
AATCTTCC | -0.133 ± 0.036
ATGTTAGG | -0.129 ± 0.0019
AGAAGTCT | -0.117 ± 0.026
CACAAACA | 0.0857 ± 0.017
CTACATTA | -0.258 ± 0.011
AGAACACC | 0.101 ± 0.0043
CCATTAGA | -0.214 ± 0.039
ATCTAATG | -0.163 ± 0.025
ACACAAGA | -0.0687 ± 0.0099
ATTACGAC | -0.142 ± 0.079
GAGTCCCA | -0.36 ± 0.077
CCCGTTCC | 0.0804 ± 0.0012
AAACTTAA | -0.103 ± 0.0044
AGTTAGGG | -0.209 ± 0.0084
TAGAAAGA | -0.285 ± 0.0039
AATAGGAG | -0.339 ± 0.037
GACGCAGC | -0.0752 ± 0.027

Sequence | PBM E-score of 8-mer
AGAAGCGC | 0.0884 ± 0.0027
AATTGAAG | -0.281 ± 0.037
ACTAGGAG | -0.0309 ± 0.06
ACTCTTAC | -0.0597 ± 0.021
AAGTGTAG | 0.144 ± 0.0052
CGGTCCGA | -0.15 ± 0.019
GTGTACGA | -0.00414 ± 0.036
ACAAGCAC | 0.112 ± 0.036
AAAAAGTG | 0.213 ± 0.073
CCGGTCGC | 0.163 ± 0.012
GCCCAGAC | -0.133 ± 0.029
CCTGAAAA | 0.0275 ± 0.083
ATAGTGAT | -0.019 ± 0.059
AATAAGTA | -0.0666 ± 0.068
AGATTTGA | -0.0264 ± 0.068
GCGCCCTA | 0.0642 ± 0.093
ATCTTTCA | -0.153 ± 0.076
AGTCTTGC | -0.0336 ± 0.016
AGTCCAAC | -0.0297 ± 0.006
GGGGTTCA | -0.015 ± 0.022
AAGCCCTT | -0.113 ± 0.022
CATACCCA | -0.175 ± 0.12
AGGGGACG | -0.173 ± 0.0034
CTGGTTCA | -0.00744 ± 0.012
CGACACTA | 0.324 ± 0.0086

Sequence | PBM E-score of 8-mer
AGAACAAC | -0.0673 ± 0.051
CATTTATA | -0.165 ± 0.021
GCCGTGGA | 0.00788 ± 0.02
CACCGTGC | 0.112 ± 0.019
CCGCGGAA | -0.0697 ± 0.016
CCCGGACC | -0.2265 ± 0.0013
CTACGAAA | -0.0722 ± 0.03
CATAAAGA | -0.0483 ± 0.0071
AGCACCAC | 0.0591 ± 0.021
TCAGTACA | -0.134 ± 0.012
GCCGTGCC | -0.0405 ± 0.00037
AATACCGT | -0.0892 ± 0.048
CTCTGACA | 0.233 ± 0.019
ATGTTCCC | -0.1414 ± 0.00052
AACTGCAA | -0.103 ± 0.028
CCCCGTCA | 0.245 ± 0.0076
ACCCCTAG | -0.117 ± 0.067
ACGTATAA | -0.135 ± 0.027
ATTCCAGC | -0.127 ± 0.044
AGTCTTCC | -0.178 ± 0.0065
CGGATGCA | -0.114 ± 0.0027
GGTGAGAC | 0.3819 ± 0.0012
GAATTTGC | 0.161 ± 0.00052
AGGAAAGC | -0.18 ± 0.0045
ACTAAAGT | -0.0358 ± 0.015

Sequence | PBM E-score of 8-mer
CGACAATC | 0.187 ± 0.014
CTTGAAGC | -0.0884 ± 0.014
GAACTCAC | 0.041 ± 0.0073
ATAGGCGC | 0.263 ± 0.0076
CGGGTCTA | 0.0644 ± 0.047
AGTAGTGG | -0.0265 ± 0.028
ACTGACCC | -0.251 ± 0.056
AGGCGGGC | 0.0171 ± 0.099
ACATGTCA | 0.219 ± 0.053
AATTAGAA | -0.104 ± 0.028
ATAAAGGC | -0.081 ± 0.012
ACCCGTAC | -0.238 ± 0.044
AGAACTCA | -0.148 ± 0.087
CCAAACCA | -0.089 ± 0.031
GGCGCACC | 0.0139 ± 0.06
AGACGTAT | 0.0364 ± 0.00074
AGTGATCA | -0.0115 ± 0.043
GTTATTAA | 0.0151 ± 0.088
AACTGCAG | -0.0867 ± 0.025
TAGGATCA | -0.332 ± 0.033
AACGCGAG | 0.13 ± 0.021
GACACTTA | 0.393 ± 0.0065
GCTGCAGA | -0.00912 ± 0.096
ATGTCAAA | 0.113 ± 0.037
AAACACTT | 0.335 ± 0.039

Sequence | PBM E-score of 8-mer
GCCCCGGA | -0.197 ± 0.11
GCAACCCA | 0.0243 ± 0.058
ACACGCAA | 0.174 ± 0.025
AGTTTGAT | -0.0263 ± 0.017
CAAAGTGA | 0.295 ± 0.047
CAACCCCA | 0.0392 ± 0.039
CAGACACC | 0.3 ± 0.028
GGCAACGA | 0.085 ± 0.022
ACGATACG | -0.0294 ± 0.055
CGGTCTCC | -0.159 ± 0.064
CGAAGGGA | 0.0616 ± 0.042
CTAGTCCA | -0.134 ± 0.018
CCCGACCG | -0.0137 ± 0.042
GAATCGGA | 0.0666 ± 0.017
CCGCAGCA | -0.0663 ± 0.01
ATTACCTG | -0.134 ± 0.052
CTTTTAAA | -0.241 ± 0.039
AAGGCCGT | -0.165 ± 0.092
AGGCGCCG | 0.168 ± 0.026
AGTGTTAC | 0.3741 ± 0.0036
ACCGCATG | -0.287 ± 0.016
ACGCTTGA | 0.206 ± 0.012
